These results are taken from PubChem BioAssay AID1240 (Sanford-Burnham Center for Chemical Genomics, 2008).

Structures are written as SMILES. About 800 (1.6%) of roughly 50,000 compounds showed an effect of 50% or more. The list shows a part of the results.

The assay deals with Bcl-2-like protein 10 (Homo sapiens) (UniProt Q9HD36). As to the kind of experiment: Phenotype converters, Bcl-B/TR3 peptide binding displacement, primary biochemical FP (AID 1240).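 Further: 0% = Bcl-B with tracer peptide and DMSO and 100% = tracer peptide lacking Bcl-B.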 The following applies: GST-Bcl-B / FITC-TR3 peptide fluorescence polarization; stronger effect = higher value; compound at 3.75 mg/L. In general terms: Polarisation of emitted light reports the rotation of a fluorescent probe.
UniProt Q9HD36, sequence (Q9HD36 whole entry, looked up): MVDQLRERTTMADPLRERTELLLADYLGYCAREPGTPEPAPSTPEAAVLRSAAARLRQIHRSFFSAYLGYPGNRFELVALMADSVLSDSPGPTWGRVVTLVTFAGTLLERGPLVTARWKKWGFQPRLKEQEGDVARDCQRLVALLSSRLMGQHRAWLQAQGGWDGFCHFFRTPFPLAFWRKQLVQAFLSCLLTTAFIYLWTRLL
Regarding `O=C(Nc1ccccc1)Nc1nnc(C(c2ccccc2)c2ccccc2)s1`, the displacement was -0.2%.

Turning to `O=S(=O)(N/N=C/c1cccc(Cl)c1)c1ccc(Cl)cc1`, the displacement stood at 0.9%.

As to `CCCCNCCCOc1cc(C)cc(C)c1`, the displacement came to 7.9%.

On to `CC(C)(C)c1cc(Br)ccc1OCC(=O)Nc1ccc(F)cc1`, for which the displacement is -4%.

Consider `Cc1cc(C)cc(NC(=O)COc2cc(C)c(Cl)c(C)c2)c1`, for which the displacement was -6.5%.

On to `Cc1ccc(C(=O)N2CCC(C(N)=O)CC2)cc1`, for which the displacement is -3.8%.

Turning to `COc1ccc(-c2cc(C(=O)NN3CCN(C)CC3)c3ccccc3n2)cc1OC`, the displacement came out at 1.7%.

Regarding `CCc1cccc(C)c1NS(=O)(=O)c1c(C)cc(C)cc1C`, the displacement is 7.7%.

In the case of `CC(=O)Nc1nc(-c2ccccc2)nc(C)c1C(C)=O`, the displacement is -11.8%.

Turning to `COC(=O)c1c(C)oc2ccc(OCc3c(F)c(F)c(F)c(F)c3F)cc12`, the displacement turned out to be 14.2%.

Take `CCCC(CCC)C(=O)Nc1ccc2c(c1)N(C(=O)CCN1CCOCC1)c1ccccc1CC2`: the displacement was -3.2%.

Regarding `Cc1ccc(N2NC(=O)/C(=C/c3cc([N+](=O)[O-])ccc3O)C2=O)cc1C`, the displacement worked out at 4.3%.

Turning to `CCOc1ccc2nc(SC3CC(=O)N(c4cc(Cl)ccc4Cl)C3=O)sc2c1` (centres undefined), the displacement was found to be 11%.

Take `CCCCCc1nc2sc3c(c2c(=O)n1N)CC(C)CC3` (centres undefined): the displacement is 3.6%.

In the case of `O=C(O)c1ccccc1/C=C1\SC(=S)N(Cc2ccccc2)C1=O`, the displacement was 0.7%.

Regarding `O=C(NCc1ccccc1)c1ccc(C2SCC(=O)N2Cc2ccccc2)cc1` (centres undefined), the displacement came to 0%.

Regarding `CC(NC(=O)CSc1nc2ccc(N)cc2s1)c1ccccc1` (centres undefined), the displacement is -2.3%.

In the case of `Cc1cc(C)cc(NC(=O)c2ccc(F)cc2)c1`, the displacement came to 2%.

For the compound `Cc1cc2c(c(=O)o1)C(c1ccc([N+](=O)[O-])cc1)C(C#N)=C(N)O2` (centres undefined), the displacement turned out to be 14.4%.

As to `COc1ccc(C(=O)NC2CCSC2=O)cc1[N+](=O)[O-]` (centres undefined), the displacement was 1.1%.

With `Cc1cc[n+](CC(=O)OC23CC4CC(CC(C4)C2)C3)cc1`, the displacement came out at 7.9%.

For the compound `CCc1ccc(-c2cc(C(=O)O)c3cc(Br)ccc3n2)s1`, the displacement is -8.7%.

With `Cc1ccc(C(=O)n2cnc3ccccc32)o1`, the displacement was -1.6%.

In the case of `O=C(c1cc(F)c(F)cc1Cl)n1nnc2ccccc21`, the displacement is -2.8%.

Turning to `COc1ccc(NC(=O)c2c(C)c(-c3ccc(Cl)cc3)nc3ccccc23)c(OC)c1`, the displacement is -6.7%.

With `O=C(Nc1ncc(Cc2ccccc2)s1)c1ccc([N+](=O)[O-])cc1`, the displacement stood at 2.7%.

For `COc1ccc(CNC(=O)c2cc(Cl)ccc2Cl)cc1`, the displacement turned out to be 4.1%.

For the compound `COc1ccccc1NC(=O)Nc1ncccc1C`, the displacement is -0.5%.

Regarding `NNC(=O)c1ccc(NS(=O)(=O)c2ccccc2)cc1`, the displacement is -5.5%.

For the compound `O=[N+]([O-])c1ccc(C=Nc2ccc(Cl)c([N+](=O)[O-])c2)s1`, the displacement is 7.1%.

For `CCCCCCCCCCCCNC1CC(=O)NC1=O` (centres undefined), the displacement was -8.9%.

Turning to `CN(C)NC(=O)c1cccc2c1-c1ccc(I)cc1C2`, the displacement is -1.5%.

Regarding `CN(C)c1cccc(C(=O)Nc2ccc(Cl)cc2Cl)c1`, the displacement is -2.1%.

As for `N#C/C(=C\c1ccc(-c2cccc(C(F)(F)F)c2)o1)c1ccc(Cl)cc1`, the displacement was -15.3%.

Take `COc1ccc(CNC(=O)Cc2ccccc2)cc1OC`: the displacement came to 0.5%.

Consider `Cc1ccc2oc(-c3cccc(NC(=O)/C=C/c4cccc([N+](=O)[O-])c4)c3C)nc2c1`, for which the displacement was -24.7%.

Turning to `COc1ccc(NC(=O)C(=O)NCc2ccc(C)cc2)c(OC)c1`, the displacement came to 10.4%.

Take `COc1cc(C(=O)Nc2c(C)cccc2C(C)C)c(Br)c(OC)c1OC`: the displacement is 10.5%.

For `O=C(Nc1ccc(C(=O)Nc2ccc(Cl)cc2)cc1)c1ccccc1`, the displacement amounted to 14.6%.

Turning to `Cc1ccc(C(=O)NCc2ccccc2)o1`, the displacement was determined as 1.9%.

As for `COc1cccc(/C=C(/C#N)C(=O)Nc2ccc(F)cc2)c1O`, the displacement came out at 30.1%.

In the case of `COc1ccc(NC(=O)COc2c(C)cc(C)cc2C)cc1`, the displacement was found to be 12.3%.

For the compound `Cc1cc(/C=C2\C(=O)NC(=S)N(c3ccccc3)C2=O)c(C)n1-c1ccc([N+](=O)[O-])cc1`, the displacement was 16.8%.

On to `COC(=O)CCCN1C(=O)/C(=C/c2ccc(OC)cc2)SC1=S`, for which the displacement was 1.8%.

On to `O=C(c1ccccc1Cl)N1CCN(C/C=C/c2ccccc2)CC1`, for which the displacement worked out at 2%.

Turning to `COc1ccc(CCNC(=O)c2cc(-c3cccc(OC)c3)nc3ccccc23)cc1`, the displacement is -8.4%.

For `CCOc1ccc(N2C(=O)C3C(C2=O)C2(C)c4ccccc4C3(C)c3ccccc32)cc1` (centres undefined), the displacement is -12%.

Consider `Cc1cccc(-c2nc3cc(NC(=O)c4ccc(Br)o4)ccc3o2)c1`, for which the displacement is -0.4%.

In the case of `CCC(C(=O)Nc1cccc(Br)c1)c1ccccc1` (centres undefined), the displacement stood at 8.7%.

Take `CCCCOc1cccc(C(=O)N2CCN(c3ccc([N+](=O)[O-])cc3)CC2)c1`: the displacement is 12.9%.

Take `COc1ccc(NC(=O)CN(Cc2ccccc2)S(=O)(=O)c2ccccc2)cc1`: the displacement stood at 6%.

`NS(=O)(=O)c1ccc(NC(=O)CCC(=O)O)cc1`: the displacement was -3.2%.

As for `O=C(NCCCNc1ccc([N+](=O)[O-])cc1)c1cccc(Br)c1`, the displacement was -3.6%.

Turning to `O=C(NC(NC(=S)Nc1cccc(Br)c1)C(Cl)(Cl)Cl)c1ccccc1F` (centres undefined), the displacement was found to be 12.6%.

Take `COc1ccc(NC(=O)CC(C)=O)cc1Cl`: the displacement came out at 2.1%.

`Cc1ccc(/C(O)=C(\C#N)c2nc3ccccc3[nH]2)cc1`: the displacement was -11.6%.

On to `CCCCNCCCCOc1c(C)cccc1C`, for which the displacement worked out at 8.6%.

Consider `CCOC(=O)c1ccc(N2C(=O)CC(=O)NC2=O)cc1`, for which the displacement was -0.9%.

For `O=S(=O)(NCc1ccco1)c1ccc(Cl)cc1Cl`, the displacement is -8.7%.

As to `O=S(=O)(c1ccc(I)cc1)N1CCCC1`, the displacement was found to be 14.1%.

With `COc1ccc(NCCC(=O)c2ccc(Cl)c(Cl)c2)cc1`, the displacement was -2.3%.

Turning to `Cc1cccc(C(=O)NC(NC(=O)c2cccc(C)c2)c2ccc(Br)cc2)c1`, the displacement was -4.1%.

`O=C(CNc1ccccc1Cl)c1ccc([N+](=O)[O-])cc1`: the displacement is -9.2%.

On to `O=C(O)CCCN1C(=O)C(=O)/C(=C(/O)c2ccccc2)C1c1ccccc1Cl` (centres undefined), for which the displacement was -8%.

As for `COc1cc(/C=C2\C(=O)NC(=O)N(c3ccc(C)cc3)C2=O)c(Br)cc1OCC(=O)O`, the displacement turned out to be 16.2%.

`O=C1CCCc2oc3ccc(NS(=O)(=O)c4cc(Cl)ccc4Cl)cc3c21`: the displacement is -1.2%.

For the compound `CCN1C(C)=C(C(=O)OC)C(c2ccc([N+](=O)[O-])cc2)C(C(=O)OC)=C1C`, the displacement worked out at 7.4%.

For the compound `COc1ccc(N2C(=O)CC(C3CCCO3)C2=O)cc1` (centres undefined), the displacement is -6.7%.

Consider `O=C(O)c1ccc(NC(=O)c2cc(NC(=O)c3ccc(C(=O)O)cc3)cc(C(=O)Nc3ccc([N+](=O)[O-])cc3)c2)cc1`, for which the displacement came to 10%.

For the compound `Cc1cc(C)cc(NC(=O)C(=O)NCC(C)O)c1` (centres undefined), the displacement was -0.7%.

With `COCCNC(=O)CN(c1ccc(OC)c(Cl)c1)S(C)(=O)=O`, the displacement is -14.1%.

On to `O=C(NCC1(c2ccccc2)CCOCC1)c1ccc(Cl)cc1Cl`, for which the displacement was -8.5%.

Turning to `CCN(CC)C(=O)c1sc(NC(=O)C2c3ccccc3Oc3ccccc32)c(C(N)=O)c1C`, the displacement was -3.7%.

Take `CC(C)CCNC(=O)c1cc(-c2ccccc2)nc2ccccc12`: the displacement is -8.9%.

Take `Fc1c(F)c(C(F)(F)F)c(F)c(F)c1N1CCN(c2ccc3nnc(C(F)(F)F)n3n2)CC1`: the displacement is -11.2%.

For `Nc1nonc1N=Cc1ccccc1O`, the displacement was -11%.

In the case of `O=C(CN1C(=O)c2ccc([N+](=O)[O-])cc2C1=O)Nc1ccc(F)cc1`, the displacement came out at 1.6%.

In the case of `COc1cccc(/C=N/NC(=O)Cn2c(-c3nonc3N)nc3ccccc32)c1OCc1ccc(Cl)cc1Cl`, the displacement stood at 8.6%.

On to `COc1ccc(S(=O)(=O)Oc2ccccc2)cc1`, for which the displacement worked out at 4.7%.

For the compound `Cc1ccc(-c2nnc(-c3ccc(Br)o3)o2)cc1`, the displacement was -2.1%.

Regarding `Cc1ccc(C(=O)O)cc1N1C(=O)c2ccc(Oc3cccc([N+](=O)[O-])c3)cc2C1=O`, the displacement was -5.7%.

As to `O=C(O)COc1ccc(/C=C2\C(=O)NN(c3ccccc3)C2=O)cc1`, the displacement turned out to be 22.6%.

Regarding `N#Cc1c(C(F)(F)F)cc(-c2ccccc2)nc1SCC(=O)NCC(=O)O`, the displacement came out at 13.6%.

As for `CCc1ccc(N2CC(C(=O)Nc3ccc([N+](=O)[O-])cc3)CC2=O)cc1` (centres undefined), the displacement was 12.4%.

Turning to `Cc1ccc(-n2nc(C)c(-c3cccc([N+](=O)[O-])c3)c2C)cc1Cl`, the displacement came to 10.6%.

For `C/C=C/C=C/C(=O)N1C(=O)C(=O)c2cc(Br)ccc21`, the displacement was determined as 4.9%.

With `COc1ccc(C2C(C(=O)/C=C/c3ccccc3)=C(O)C(=O)N2CCCCCC(=O)O)cc1OC` (centres undefined), the displacement is -11.7%.

For the compound `COc1ccc(NC(=O)c2cc(-c3ccc(OC)cc3)nc3ccccc23)cc1`, the displacement is 4.8%.

As to `COc1cc(/C=C2\NC(=S)NC2=O)ccc1Oc1ccc([N+](=O)[O-])cn1`, the displacement came to 8.2%.

In the case of `COC(=O)c1ccc(/C=C2\SC(=S)N(CCCC(=O)Nc3nccs3)C2=O)cc1`, the displacement is 26.3%.

`Cc1cccn2c(=O)c(/C=C3\SC(=S)N(Cc4ccccc4)C3=O)c(NCCCn3ccnc3)nc12`: the displacement was 9.7%.

On to `COc1ccc(C(=O)Nc2ccc(S(=O)(=O)Nc3ncccn3)cc2)cc1OC`, for which the displacement was -11.5%.

Regarding `Nc1ncc(-c2ccc([N+](=O)[O-])cc2)cn1`, the displacement was -4.1%.

For `Cc1c(N(C(=O)c2ccc(Cl)cc2)C(C)C)c(=O)n(-c2ccccc2)n1C`, the displacement is -1.6%.

Consider `O=c1cc(N2CCCCC2)c2ccccc2n1-c1ccccc1`, for which the displacement was -10%.

Turning to `Cc1ccc(OCC(=O)NN)c(Br)c1`, the displacement is -6.5%.

`COc1ccc(C(O)(C(=O)NCCCCOc2ccccc2)c2ccc(OC)cc2)cc1`: the displacement is -3.3%.

Turning to `COc1ccccc1N1C(=O)c2ccc(C(=O)Nc3ccccc3O)cc2C1=O`, the displacement came to 20.9%.

As to `N=c1oc2ccc([N+](=O)[O-])cc2cc1-c1nc2ccccc2[nH]1`, the displacement was -3.3%.

Consider `Nc1nnnn1/N=C/c1ccc(N2CCOCC2)cc1`, for which the displacement amounted to 0%.

As to `CCCOC(=O)C1=C(C)NC2=C(C(=O)CC(c3ccc(OC)cc3)C2)C1c1cc(Br)c(O)c(OC)c1` (centres undefined), the displacement was -6.2%.

Turning to `CCOc1ccc(/C=C(\NC(=O)c2cccc(Br)c2)C(=O)N2CCCCCC2)cc1`, the displacement was -8%.

On to `C/C(=N\NC(=O)c1ccco1)c1ccc(Br)cc1`, for which the displacement is 3.8%.

`O=C(Nc1ccc(Cl)cc1)Nc1nnc(Cc2ccc(Cl)cc2)s1`: the displacement was 11.2%.

As for `COC(=O)c1sccc1NC(=O)c1ccc(C)c([N+](=O)[O-])c1`, the displacement was found to be 3.3%.

As for `CCCCNCCCCCCOc1ccccc1OC`, the displacement amounted to 4.5%.

With `COc1cc(/C=C2/SC(=S)NC2=O)ccc1OS(=O)(=O)c1ccccc1`, the displacement was -98.1%.

Regarding `CCCC(=O)NC(c1ccccc1Cl)c1c(O)ccc2ccccc12` (centres undefined), the displacement was found to be 3.9%.

As to `COc1ccc(C2NC(=O)NC(C)=C2C(=O)Nc2ccccc2C)cc1OC` (centres undefined), the displacement came out at 5.2%.
